Experimental data published in PubChem BioAssay (NCI).
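In this assay, cells in 96-well plates receive the compound at five concentrations for 48 hours. Endpoints are linearly interpolated between the surrounding concentrations. At the GI50, growth is halved. Definition used: TGI = concentration required for complete inhibition of growth.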

Tested on: NCI-H322M lung
Assay: DTP human tumour cell line panel, 48 h

Compound	GI50 [µM]	TGI [µM]
C=CC(=O)Nc1nc(-c2cccc(NS(=O)(=O)c3cccc4c(N(C)C)cccc34)c2)cs1	11	20.9
CC(C)(C)c1cc(/C=C2\S/C(=N/c3ncn[nH]3)NC2=O)cc(C(C)(C)C)c1O	2.27	15.2
Cn1cc(-c2cc(N)n3nc(-c4cn(C)c5ccccc45)cc3n2)c2cc(F)ccc21	2.09	5.74
Cc1ccc(S(=O)(=O)c2nc(-c3ccccc3)oc2S(=O)(=O)CC(=O)N2CCCC2)cc1	13.3	26.1
